Molecules are shown by their SMILES. In all, about 310,000 compounds went through this assay and about 14,000 (4.5%) showed an effect of 50% or more. Effects have a minus sign here. This is one part of the list.
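Also: peak tail current of the secondary pulse compared with the same well before compound.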

Chain of human ether-à-go-go-related gene (hERG) potassium channel (Q12809 whole entry, looked up): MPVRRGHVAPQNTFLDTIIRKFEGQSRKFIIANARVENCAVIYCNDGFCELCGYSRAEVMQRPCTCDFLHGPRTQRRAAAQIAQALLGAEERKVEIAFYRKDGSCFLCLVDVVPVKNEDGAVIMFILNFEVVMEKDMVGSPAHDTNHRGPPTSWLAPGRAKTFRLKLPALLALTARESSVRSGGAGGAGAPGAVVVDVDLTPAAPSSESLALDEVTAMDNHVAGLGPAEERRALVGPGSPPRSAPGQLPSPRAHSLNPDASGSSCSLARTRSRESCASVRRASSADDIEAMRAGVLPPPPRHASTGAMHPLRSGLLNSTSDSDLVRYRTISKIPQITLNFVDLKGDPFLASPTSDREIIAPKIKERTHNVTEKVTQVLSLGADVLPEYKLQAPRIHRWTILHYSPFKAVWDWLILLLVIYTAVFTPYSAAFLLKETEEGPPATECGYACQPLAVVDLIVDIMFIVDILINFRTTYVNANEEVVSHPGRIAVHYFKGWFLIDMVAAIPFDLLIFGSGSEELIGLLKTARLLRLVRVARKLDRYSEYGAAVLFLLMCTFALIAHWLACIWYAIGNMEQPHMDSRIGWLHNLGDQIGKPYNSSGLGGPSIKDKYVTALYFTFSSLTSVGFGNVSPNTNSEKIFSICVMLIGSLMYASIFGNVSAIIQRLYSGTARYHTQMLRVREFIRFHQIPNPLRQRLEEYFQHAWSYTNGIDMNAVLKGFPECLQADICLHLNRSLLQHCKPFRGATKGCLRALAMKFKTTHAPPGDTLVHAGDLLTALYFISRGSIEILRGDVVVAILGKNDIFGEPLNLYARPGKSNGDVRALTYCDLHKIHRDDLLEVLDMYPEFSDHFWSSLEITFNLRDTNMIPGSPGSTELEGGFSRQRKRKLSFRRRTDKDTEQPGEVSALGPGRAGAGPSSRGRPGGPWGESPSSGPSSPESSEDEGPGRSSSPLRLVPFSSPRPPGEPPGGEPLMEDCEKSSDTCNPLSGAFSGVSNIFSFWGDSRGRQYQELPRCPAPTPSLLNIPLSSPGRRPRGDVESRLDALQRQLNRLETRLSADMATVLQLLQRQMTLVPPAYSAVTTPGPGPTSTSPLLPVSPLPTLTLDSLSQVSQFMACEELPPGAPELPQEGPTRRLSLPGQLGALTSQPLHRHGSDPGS

The assay addresses human ether-à-go-go-related gene (hERG) potassium channel (human, UniProt Q12809). Nature of the assay: primary screen, population patch clamp on CHO cells stably expressing hERG.
For `COc1cccc(NC(=O)CSc2nnc(C)s2)c1`, the “hERG current change (%, negative = inhibition) at 10uM” value is 4.43%.

In the case of `Cc1ccc(NC(=O)C(C)Sc2nnc(C3CC3)n2C2CC2)cc1S(=O)(=O)N1CCOCC1` (centres unmarked), the “hERG current change (%, negative = inhibition) at 10uM” value is reported as -51%.

For `COc1ncnc2c1oc1ccccc12`, the “hERG current change (%, negative = inhibition) at 10uM” value came to 9.91%.

For the compound `CCOC(=O)c1ccc(N2C(=O)c3n[nH]c(C)c3C2c2ccccc2)cc1` (centres unmarked), the “hERG current change (%, negative = inhibition) at 10uM” value is on record as -1.55%.

Consider `CCN(c1ccccc1)S(=O)(=O)c1cccc(C(=O)OCc2nc3sc(C)c(C)c3c(=O)[nH]2)c1`, for which the “hERG current change (%, negative = inhibition) at 10uM” value was found to be 2.67%.

Take `c1ccc(Nc2nn[nH]n2)cc1`: the “hERG current change (%, negative = inhibition) at 10uM” value came out at 9.37%.

Consider `O=C(COc1ccc(Cl)cc1)NCc1nnc(SCC(=O)NCc2ccc3c(c2)OCO3)o1`, for which the “hERG current change (%, negative = inhibition) at 10uM” value is recorded as -5.72%.

Regarding `Cc1cc(Cn2nc(C(=O)NCC3CC3)cc2-c2ccccc2)on1`, the “hERG current change (%, negative = inhibition) at 10uM” value is listed as -35.3%.

As for `CCc1nnc(NC(=O)C2CCC(CNc3c(N4CCCCC4)c(=O)c3=O)CC2)s1` (centres unmarked), the “hERG current change (%, negative = inhibition) at 10uM” value amounted to 13.3%.

As to `O=C(Nc1ccccc1C(=O)O)C1=NN=CC1`, the “hERG current change (%, negative = inhibition) at 10uM” value is given as 8.51%.

As to `COc1ccc(N2CCN(C(=O)CCS(=O)(=O)c3ccc4c(c3)NC(=O)C(C)S4)CC2)cc1` (centres unmarked), the “hERG current change (%, negative = inhibition) at 10uM” value is recorded as 18%.

Take `CCN1CCN(c2c(Cl)cccc2NC(=O)c2ccc([N+](=O)[O-])o2)CC1`: the “hERG current change (%, negative = inhibition) at 10uM” value was -73.9%.

Regarding `O=C1c2cnc3nc(SCc4ccccc4)nn3c2CC2c3ccccc3CCN12` (centres unmarked), the “hERG current change (%, negative = inhibition) at 10uM” value was -23.7%.

Regarding `CNC(=O)NC(=O)C(C)OC(=O)CCCSc1nc2ccccc2s1` (centres unmarked), the “hERG current change (%, negative = inhibition) at 10uM” value is -7.96%.

For `Nc1c(C(=O)c2ccc(Cl)cc2)sc2nsc(SCCN3CCOCC3)c12`, the “hERG current change (%, negative = inhibition) at 10uM” value is given as 5.78%.

For `CC(C)CN1C(=O)NC(NC(=O)c2ccco2)(C(F)(F)F)C1=O` (centres unmarked), the “hERG current change (%, negative = inhibition) at 10uM” value is -17.2%.

As to `Cc1cc(C(=O)NP(=O)(N2CC(C)OC(C)C2)N2CC(C)OC(C)C2)c(C)n1C1CC1` (centres unmarked), the “hERG current change (%, negative = inhibition) at 10uM” value was 13.8%.

As to `Cc1ccc(C(=O)NCCc2c[nH]c3ccccc23)s1`, the “hERG current change (%, negative = inhibition) at 10uM” value is on record as 4.38%.

As to `O=C(CCc1ccccc1)N1CCCC(Nc2ccc(F)cc2)C1` (centres unmarked), the “hERG current change (%, negative = inhibition) at 10uM” value is on record as -34%.

Turning to `CCOCCCNC(=O)Cn1nc(-c2ccccc2)ccc1=O`, the “hERG current change (%, negative = inhibition) at 10uM” value was determined as 2.14%.

Turning to `Cc1ccc(OCC(=O)Nc2ccc([N+](=O)[O-])cn2)cc1C`, the “hERG current change (%, negative = inhibition) at 10uM” value was found to be 10.3%.

For `CCCCn1c(=O)nc2n(-c3ccccc3C)c3ccccc3cc-2c1=O`, the “hERG current change (%, negative = inhibition) at 10uM” value is reported as -22.5%.

`CCn1cc(Br)c(C(=O)Nc2ccccc2C(=O)OC)n1`: the “hERG current change (%, negative = inhibition) at 10uM” value is -25.2%.

Turning to `COc1ccc2c(c1)OC13CCCCC1C2C(C(=O)c1ccccc1)C(=O)N3` (centres unmarked), the “hERG current change (%, negative = inhibition) at 10uM” value amounted to 2.72%.

On to `O=C(c1ccc(N2CCCCCC2)c([N+](=O)[O-])c1)N1CCc2ccccc21`, for which the “hERG current change (%, negative = inhibition) at 10uM” value worked out at 4.17%.

Turning to `CC(C)CN(C(=O)CN1C(=O)NC(c2ccccc2)(c2ccccc2)C1=O)C1CCS(=O)(=O)C1` (centres unmarked), the “hERG current change (%, negative = inhibition) at 10uM” value was -34.1%.

As for `CN(CCc1ccccn1)C(=S)NC(=O)c1ccco1`, the “hERG current change (%, negative = inhibition) at 10uM” value is 17.1%.

On to `CC(=O)c1cccc(S(=O)(=O)N2CCC(n3nnc4cc(F)ccc43)CC2)c1`, for which the “hERG current change (%, negative = inhibition) at 10uM” value is on record as -63.7%.

Consider `O=C(CCc1nnc(CCCc2ccccc2)o1)NCCCC1CCCC1`, for which the “hERG current change (%, negative = inhibition) at 10uM” value is -1.45%.

Take `O=C(CN1CCCCCC1)NCCN1C(=O)S/C(=C\c2ccccc2Cl)C1=O`: the “hERG current change (%, negative = inhibition) at 10uM” value is given as -9.34%.

For `O=C1c2ccccc2NC(c2ccc(-c3cccc(Cl)c3)o2)N1O` (centres unmarked), the “hERG current change (%, negative = inhibition) at 10uM” value is -6.77%.

As to `CCc1nnc(NC(=O)CCC(=O)NC2CCCCCCC2)s1`, the “hERG current change (%, negative = inhibition) at 10uM” value is recorded as 13.8%.

For `CCS(=O)(=O)c1ccc2oc(SCC(=O)NCCc3ccccc3)nc2c1`, the “hERG current change (%, negative = inhibition) at 10uM” value is recorded as -13.8%.

Turning to `O=C(O)CCC(=O)Nc1ccccc1C(=O)NCCc1ccccc1`, the “hERG current change (%, negative = inhibition) at 10uM” value is given as 13.2%.

As to `C/C(=C\c1ccc(C)o1)C(=O)c1c(C)cc(C)[nH]c1=O`, the “hERG current change (%, negative = inhibition) at 10uM” value was 11.5%.

For `CCOc1ccc(N=Nc2c(C)noc2C)cc1`, the “hERG current change (%, negative = inhibition) at 10uM” value came out at 15.2%.

For `O=C(COc1ncnc2ccccc12)c1ccc2c(c1)OCCO2`, the “hERG current change (%, negative = inhibition) at 10uM” value was found to be 9.19%.

For the compound `O=C(CSc1nnc(Cn2c(=O)sc3ccccc32)n1-c1ccccc1)N1CCCCCC1`, the “hERG current change (%, negative = inhibition) at 10uM” value is -12.5%.

Regarding `Nn1c(SCC(=O)Nc2ccc3c(c2)OCCO3)nnc1C(F)(F)F`, the “hERG current change (%, negative = inhibition) at 10uM” value was 11.6%.

On to `Cc1noc(C)c1C(=O)OCC(=O)Nc1ccc(S(N)(=O)=O)cc1`, for which the “hERG current change (%, negative = inhibition) at 10uM” value is listed as -14.9%.

As to `Cc1ccc(CCNC(=O)C2CCCN(S(=O)(=O)N3CC(C)CC(C)C3)C2)cc1` (centres unmarked), the “hERG current change (%, negative = inhibition) at 10uM” value was 21.5%.

On to `CCC(=O)c1ccc(OCC(=O)Nc2ccccc2C(=O)N2CCCCC2)cc1`, for which the “hERG current change (%, negative = inhibition) at 10uM” value is 2.77%.

With `COc1ccc(N(CC(=O)Nc2ccc(S(=O)(=O)N3CCOCC3)cc2)S(=O)(=O)c2ccc(F)cc2)cc1`, the “hERG current change (%, negative = inhibition) at 10uM” value turned out to be 4.34%.

For the compound `CSCC[C@H](NC(=O)COc1ccc(Cl)cc1Cl)c1nc2ccccc2[nH]1`, the “hERG current change (%, negative = inhibition) at 10uM” value came out at 14.7%.

The record behind these values is PMC4336329 (PLoS ONE, 2015).
